Laboratory results: US20200347143A1 (GLENMARK PHARMACEUTICALS S A, published 2020)
Numbering of substitutions follows the chain as printed. In names and notes the source's numbering stands.

What was measured:
[1] = molecular target: T1, human OX40 on cells (human, UniProt P43489 29-277); experiment: cell-based or functional assay
T1 sequence (looked up): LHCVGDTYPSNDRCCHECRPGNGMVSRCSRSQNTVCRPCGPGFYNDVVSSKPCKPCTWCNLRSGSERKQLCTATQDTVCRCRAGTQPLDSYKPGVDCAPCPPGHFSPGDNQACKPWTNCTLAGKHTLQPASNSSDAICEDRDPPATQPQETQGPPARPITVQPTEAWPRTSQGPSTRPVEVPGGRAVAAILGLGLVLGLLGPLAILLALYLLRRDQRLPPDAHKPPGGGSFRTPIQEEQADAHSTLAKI

[2] = molecular target: rat OX40-Fc (rat); experiment: SPR, dAb-Fc immobilised on CM5, OX40-Fc injected
[3] = molecular target: T2, human OX40-Fc (human); experiment: SPR, dAb-Fc immobilised on CM5, OX40-Fc 200 nM injected
T2 construct: also called recombinant human OX40-Fc; human OX40 (HHHH)

[4] = molecular target: T3, recombinant human OX40-his protein (human, UniProt P43489 29-214); experiment: SPR (value of Table 12 repeated)
T3 construct: Secreted via the native signal peptide, which lies within residues 1-214; also called Human OX40R-His; histidine tagged human OX40 receptor extracellular domain
T3 sequence: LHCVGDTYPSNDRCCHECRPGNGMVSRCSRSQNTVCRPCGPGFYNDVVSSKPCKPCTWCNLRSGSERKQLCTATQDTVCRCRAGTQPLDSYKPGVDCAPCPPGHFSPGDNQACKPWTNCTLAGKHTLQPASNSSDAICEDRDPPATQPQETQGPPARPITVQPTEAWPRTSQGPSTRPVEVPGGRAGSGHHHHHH

[5] = molecular target: T3, recombinant human OX40-his protein; experiment: SPR (BIAcore T200), human OX40R-His on CM5 chip, scFv-Fc injected, bivalent analyte model
[6] = molecular target: T4, cynomolgus monkey OX40R-Fc (cynomolgus monkey); experiment: SPR (BIAcore T200), cynomolgus OX40R-Fc on CM5 chip, scFv-Fc injected, bivalent analyte model
T4 construct: also called recombinant Fc fused cynomolgus monkey OX40 receptor extracellular domain; cyno OX40-Fc

[7] = molecular target: T3, recombinant human OX40-his protein; experiment: SPR, analyte at 200 nM over human OX40R on a CM5 chip, 25 C
[8] = molecular target: T5, chiOX40R RRHH-Fc (human/rat chimera; human); experiment: SPR, chimera immobilised (3000 RU), fragment injected at 200 nM
T5 construct: also called chiOX40R-Fc RRHH
Description: (§1) A second injection was then performed using HBS-EP buffer for 3 min followed by 5 min of dissociation. Regeneration between the injections was done using glycine pH1.5 buffer for 1 min (FIG. 21 and table 23).

[9] = molecular target: T6, chiOX40R HHRH-Fc (human/rat chimera; human); experiment: SPR, chiOX40R-Fc HHRH on the chip (Fc2-1), analyte 200 nM
T6 construct: also called chiOX40R-Fc HHRH; chiOX40R OX40 HHRH-Fc
Description: as §1

[10] = molecular target: T7, OX40-CRD-Avi-his (human); experiment: SPR, Fc-2H6 fragment captured by anti-human IgG Fc, OX40-CRD-Avi-his injected, 1:1 Langmuir
T7 construct: limits of the construct not described
T7 chain: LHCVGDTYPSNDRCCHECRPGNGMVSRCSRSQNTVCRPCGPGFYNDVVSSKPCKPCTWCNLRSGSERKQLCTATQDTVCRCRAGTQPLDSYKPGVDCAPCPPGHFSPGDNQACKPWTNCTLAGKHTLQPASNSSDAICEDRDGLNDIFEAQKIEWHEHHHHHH
Description: The antibody/protease mixture was incubated over night at 37° C. […] After each binding event, the surface was regenerated with 10 μl of MgCl2 (3M) buffer. Experimental data were processed using a 1:1 Langmuir model with local Rmax. The dissociation time was about 7 min.

B1: Tetra-hz1D10v1 (Fc fusion)
chain: EVQLLESGGGEVQPGGSLRLSCAASGFTFSDAFMYWVRQAPGKGLEWVSSISNRGLKTAYAESVKGRFTISRDNAKNTLYLQMSSLRAEDTAVYYCSRDVDGDFRGQGTLVTVKPGGSGGSEVQLLESGGGEVQPGGSLRLSCAASGFTFSDAFMYWVRQAPGKGLEWVSSISNRGLKTAYAESVKGRFTISRDNAKNTLYLQMSSLRAEDTAVYYCSRDVDGDFRGQGTLVTVKPGGGGT[sequence of human IgG1 Fc with changes omitted]
notes: dAb-Fc (IgG1 Fc LALA) fusion; also called 1D10v1 dAb
% donor responder (>2), SEB assay, IL-2 release [1]: 50% | Mean, normalized IL-2 release, SEB assay [1]: 1.89 | binding result [2]: no binding (tested: 200 nM) | binding result [3]: binds

B2: Tetra-hzG3V9 (Fc fusion)
chain: EVQLLESGGGEVQPGGSLRLSCAASGFTFSDAFMYWVRQAPGKEREWVSSISNRGLKTAYAESVKGRFTISRDNAKNTLYLQMSSLRAEDTAVYYCVEGDWNLGPRGQGTLVTVKPGGSGGSEVQLLESGGGEVQPGGSLRLSCAASGFTFSDAFMYWVRQAPGKEREWVSSISNRGLKTAYAESVKGRFTISRDNAKNTLYLQMSSLRAEDTAVYYCVEGDWNLGPRGQGTLVTVKPGGGGT[sequence of human IgG1 Fc with changes omitted]
notes: dAb-Fc (IgG1 Fc LALA) fusion; also called hzG3V9 dAb
% donor responder (>2), SEB assay, IL-2 release [1]: 50% | Mean, normalized IL-2 release, SEB assay [1]: 1.93 | binding result [2]: no binding (tested: 200 nM) | binding result [3]: binds

B3: Hexa-hz1D10v1 (Fc fusion)
chain: EVQLLESGGGEVQPGGSLRLSCAASGFTFSDAFMYWVRQAPGKGLEWVSSISNRGLKTAYAESVKGRFTISRDNAKNTLYLQMSSLRAEDTAVYYCSRDVDGDFRGQGTLVTVKPGGSGGSEVQLLESGGGEVQPGGSLRLSCAASGFTFSDAFMYWVRQAPGKGLEWVSSISNRGLKTAYAESVKGRFTISRDNAKNTLYLQMSSLRAEDTAVYYCSRDVDGDFRGQGTLVTVKPGGSGGSEVQLLESGGGEVQPGGSLRLSCAASGFTFSDAFMYWVRQAPGKGLEWVSSISNRGLKTAYAESVKGRFTISRDNAKNTLYLQMSSLRAEDTAVYYCSRDVDGDFRGQGTLVTVKPGGGGTGGGGT[sequence of human IgG1 Fc with changes omitted]
% donor responder (>2), SEB assay, IL-2 release [1]: 0% | Mean, normalized IL-2 release, SEB assay [1]: 1.14

B4: Hexa-hzG3V9 (Fc fusion)
chain: EVQLLESGGGEVQPGGSLRLSCAASGFTFSDAFMYWVRQAPGKEREWVSSISNRGLKTAYAESVKGRFTISRDNAKNTLYLQMSSLRAEDTAVYYCVEGDWNLGPRGQGTLVTVKPGGSGGSEVQLLESGGGEVQPGGSLRLSCAASGFTFSDAFMYWVRQAPGKEREWVSSISNRGLKTAYAESVKGRFTISRDNAKNTLYLQMSSLRAEDTAVYYCVEGDWNLGPRGQGTLVTVKPGGSGGSEVQLLESGGGEVQPGGSLRLSCAASGFTFSDAFMYWVRQAPGKEREWVSSISNRGLKTAYAESVKGRFTISRDNAKNTLYLQMSSLRAEDTAVYYCVEGDWNLGPRGQGTLVTVKPGGGGTGGGGT[sequence of human IgG1 Fc with changes omitted]
% donor responder (>2), SEB assay, IL-2 release [1]: 33% | Mean, normalized IL-2 release, SEB assay [1]: 1.82

B5: 11D4_hzG3v9 (bispecific antibody)
heavy: EVQLVESGGGLVQPGGSLRLSCAASGFTFSSYSMNWVRQAPGKGLEWVSYISSSSSTIDYADSVKGRFTISRDNAKNSLYLQMNSLRDEDTAVYYCARESGWYLFDYWGQGTLVTVSSASTKGPSVFPLAPSSKSTSGGTAALGCLVKDYFPEPVTVSWNSGALTSGVHTFPAVLQSSGLYSLSSVVTVPSSSLGTQTYICNVNHKPSNTKVDKKV[sequence of human IgG1 Fc with changes omitted]GGGGTEVQLLESGGGEVQPGGSLRLSCAASGFTFSDAFMYWVRQAPGKEREWVSSISNRGLKTAYAESVKGRFTISRDNAKNTLYLQMSSLRAEDTAVYYCVEGDWNLGPRGQGTLVTVKP
light: [sequence of about 200 residues omitted]
% donor responder (>2), SEB assay, IL-2 release [1]: 100% | Mean, normalized IL-2 release, SEB assay [1]: 22.6

B6: humanized 2H6 scFv1-Fc (Fc fusion)
scFv-Fc: EVQLVESGGGLVQPGGSLRLSCAVSGYSITSDYAWNWIRQAPGKGLEWMGYISYSGSTAYNPSLKSRITISRDTSKNTFYLQMNSLRAEDTAVYYCARGPYNYLAYWGQGTMVTVSSGGGGSGGGGSGGGGSDIQLTQSPSSLSASVGDRVTITCRASESVDNYGISFMNWFQQKPGKAPKLLIYAASNQKSGVPSRFSGSGSGTDFTLTISSLQPEDFATYFCQQSKEVPLTFGQGTKVEIKGGGGT[sequence of human IgG1 Fc omitted]
notes: also called 2H6 scFv-Fc; 2H6 (N-ter)
Kd [4]: 27 nM | Kd [5]: 27 nM | koff [5]: 0.000741 s⁻¹ | kon [5]: 155000 M⁻¹ s⁻¹ | Kd [6]: 18 nM | koff [6]: 0.000586 s⁻¹ | kon [6]: 206000 M⁻¹ s⁻¹

B7: humanized 2H6 scFv2-Fc (2H6 M108L scFv-Fc) (Fc fusion)
scFv-Fc: B6 scFv-Fc with M112L
notes: also called 2H6 scFv M108L
binding result [7]: binds

B8: Fc-2H6 Fab/2H6 Fab (other)
heavy: [sequence of human IgG1 Fc with changes omitted]GGGGTEVQLVESGGGLVQPGGSLRLSCAVSGYSITSDYAWNWIRQAPGKGLEWMGYISYSGSTAYNPSLKSRITISRDTSKNTFYLQMNSLRAEDTAVYYCARGPYNYLAYWGQGTLVTVSSASTKGPSVFPLAPSSKSTSGGTAALGCLVKDYFPEPVTVSWNSGALTSGVHTFPAVLQSSGLYSLSSVVTVPSSSLGTQTYICNVNHKPSNTKVDKKVEPKSC
light: DIQLTQSPSSLSASVGDRVTITCRASESVDNYGISFMNWFQQKPGKAPKLLIYAASNQKSGVPSRFSGSGSGTDFTLTISSLQPEDFATYFCQQSKEVPLTFGQGTKVEIKRTVAAPSVFIFPPSDEQLKSGTASVVCLLNNFYPREAKVQWKVDNALQSGNSQESVTEQDSKDSTYSLSSTLTLSKADYEKHKVYACEVTHQGLSSPVTKSFNRGEC
notes: N-terminal Fabs removed by digestion; also called purified digestion product of Tetra-18
response units [8]: 450 RU | binding result [9]: no binding (tested: 200 nM)

B9: mouse chimeric 2H6 scFv-Fc (Fc fusion)
scFv-Fc: DVQLQESGPGLVKPSQSLSLTCTVTGYSITSDYAWNWIRQFPGNKLEWMGYISYSGSTAYNPSLKSRISITRDTSKNQFFLQLNSVTTEDTATYYCARGPYNYLAYWGQGTLVTVSSGGGGSGGGGSGGGGSDIVLTQSPASLAVSLGQRATISCRASESVDNYGISFMNWFQQKPGQPPKLLIYAASNQKSGVPARFSGSGSGTDFSLNIHPMEEDDTAMYFCQQSKEVPLTFGAGTKLEIKGGGGT[sequence of human IgG1 Fc omitted]
notes: also called parental mouse 2H6 scFv
Kd [5]: 62 nM | koff [5]: 0.022 s⁻¹ | kon [5]: 680000 M⁻¹ s⁻¹ | Kd [6]: 39 nM | koff [6]: 0.000319 s⁻¹ | kon [6]: 579000 M⁻¹ s⁻¹

B10: Fc-2H6 scFv fragment of Tetra-8 (Fc fusion)
chain: [sequence of human IgG1 Fc with changes omitted]GGGGTEVQLVESGGGLVQPGGSLRLSCAVSGYSITSDYAWNWIRQAPGKCLEWMGYISYSGSTAYNPSLKSRITISRDTSKNTFYLQMNSLRAEDTAVYYCARGPYNYLAYWGQGTLVTVSSGGGGSGGGGSGGGGSDIQLTQSPSSLSASVGDRVTITCRASESVDNYGISFMNWFQQKPGKAPKLLIYAASNQKSGVPSRFSGSGSGTDFTLTISSLQPEDFATYFCQQSKEVPLTFGCGTKVEIL
notes: also called Fc-2H6 fragment; 2H6 scFv (VH/M108L-VL/K107L-disulfide engineered) fused in C-terminus of Tetra-8
Kd [10]: 60 nM
